Lines with a small IC50 respond at low doses; a fit beyond the top or the lowest dose is shown as a bound at that dose. AUC sums up the same curve from the lowest dose to the 256-fold higher top dose; it is 1 without any effect and falls as sensitivity rises. For part of these data: The top dose, if marked as inferred, was calculated from the reported fits.
Key:
Experiment in all cases: Viability of human cancer cell lines after 72 h of drug (GDSC screen)
[1] = compound: CO[C@H]1C[C@@H]2CC[C@@H](C)[C@@](O)(O2)C(=O)C(=O)N2CCCC[C@H]2C(=O)O[C@H]([C@H](C)C[C@@H]2CC[C@@H](OC(=O)C(C)(CO)CO)[C@H](OC)C2)CC(=O)[C@H](C)/C=C(\C)[C@@H](O)[C@@H](OC)C(=O)[C@H](C)C[C@H](C)/C=C/C=C/C=C/1C [Temsirolimus]; settings: top dose 0.2 µM
Protocol: (§1)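 Human cancer cell lines in 384-well plates, medium with 10% serum, drug for 72 h over a 256-fold dose range (nine 2-fold or five 4-fold steps up to the top dose). Adherent lines were fixed and stained with the nucleic acid dye Syto60, suspension lines read with resazurin; signal relative to control wells, capped at 0 and 100%. One two-parameter sigmoid per drug and line, fitted in a mixed model over all curves with the slope shared within a line.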

[2] = compound: C=CC(=O)Nc1ccc(C(=O)c2sc(Nc3ccc(N4CCN(C)CC4)cc3OC)nc2N)cc1 [XMD15-27]; settings: top dose 10.24 µM; top dose inferred
Protocol: as §1

[3] = compound: CC(=O)O[C@@H]1[C@@H](OC(C)=O)[C@@H](O)[C@H](Oc2c(-c3ccc(O)cc3)oc3cc(O)cc(O)c3c2=O)O[C@H]1C [SL 0101-1]; settings: top dose 10 µM; top dose inferred
Protocol: as §1

Cell Line	AUC [1]	IC50 [1] [µM]	AUC [2]	IC50 [2] [µM]	AUC [3]	IC50 [3] [µM]
HuH-7 (liver, adherent)	0.493	0.0119	0.985	> 10.2	0.987	> 10
HuO9 (osteosarcoma, adherent)	0.757	0.0758	0.945	> 10.2	0.971	> 10
HuO-3N1 (osteosarcoma, adherent)	0.82	0.166	0.979	> 10.2	0.974	> 10
HuP-T3 (pancreas, adherent)	0.848	> 0.2	0.981	> 10.2	0.983	> 10
IA-LM (large cell lung carcinoma, adherent)	0.86	> 0.2	0.983	> 10.2	0.973	> 10
IGR-1 (melanoma, adherent)	0.929	> 0.2	0.99	> 10.2	0.99	> 10
IGR-37 (melanoma, adherent)	0.535	0.0154	0.989	> 10.2	0.988	> 10
IMR-5 (neuroblastoma, adherent)	0.992	> 0.2	0.87	7.06	0.991	> 10
IPC-298 (melanoma, adherent)	0.694	0.0434	0.98	> 10.2	0.965	> 10
IST-MEL1 (melanoma, adherent)	0.709	0.055	0.975	> 10.2	0.97	> 10
IST-SL1 (small cell lung carcinoma, semi-adherent)	0.935	> 0.2	0.964	> 10.2	0.979	> 10
IST-SL2 (small cell lung carcinoma, suspension)	0.74	0.0601	0.974	> 10.2	0.989	> 10
JEG-3 (urogenital system, adherent)	0.917	> 0.2	0.99	> 10.2	0.985	> 10
JHH-1 (liver, adherent)	0.751	0.0709	0.985	> 10.2	0.963	> 10
JHH-2 (liver, adherent)	0.699	0.0477	0.964	> 10.2	0.962	> 10
JHH-4 (liver, adherent)	0.883	> 0.2	0.987	> 10.2	0.984	> 10
JHH-7 (liver, adherent)	0.869	0.164	0.988	> 10.2	0.984	> 10
JHOS-2 (ovary, adherent)	0.736	0.0667	0.977	> 10.2	0.974	> 10
JHOS-3 (ovary, adherent)	0.9	> 0.2	0.984	> 10.2	0.984	> 10
JHU-022 (head and neck, adherent)	0.622	0.0297	0.98	> 10.2	0.963	> 10
JIMT-1 (breast, adherent)	0.37	0.0053	0.985	> 10.2	0.974	> 10
JJN-3 (haematopoietic neoplasm, suspension)	0.813	0.0846	0.952	> 10.2	0.992	> 10
JM1 (B-cell lymphoma, suspension)	0.955	> 0.2	0.9	9.89	0.99	> 10
JSC-1 (B-cell lymphoma, suspension)	0.837	0.132	0.926	> 10.2	0.987	> 10

Cell Line	AUC [1]	IC50 [1] [µM]	AUC [2]	IC50 [2] [µM]	AUC [3]	IC50 [3] [µM]
JURL-MK1 (chronic myeloid leukaemia, suspension)	0.48	0.011	0.982	> 10.2	0.949	> 10
JVM-2 (lymphoid neoplasm, suspension)	0.651	0.0361	0.934	> 10.2	0.943	> 10
JVM-3 (lymphoid neoplasm, suspension)	0.595	0.0228	0.987	> 10.2	0.965	> 10
JiyoyeP-2003 (Burkitt lymphoma, suspension)	0.766	0.0654	0.99	> 10.2	0.984	> 10
K2 (melanoma, adherent)	0.847	> 0.2	0.982	> 10.2	0.982	> 10
K5 (thyroid, adherent)	0.222	0.00202	0.985	> 10.2	0.985	> 10
KARPAS-45 (lymphoblastic leukaemia, suspension)	0.877	0.145	0.953	> 10.2	0.982	> 10
KARPAS-231 (B-cell leukaemia, suspension)	0.378	0.00626	0.86	5.58	0.977	> 10
KARPAS-299 (anaplastic large cell lymphoma, suspension)	0.637	0.0278	0.953	> 10.2	0.992	> 10
KARPAS-422 (B-cell lymphoma, suspension)	0.556	0.0178	0.975	> 10.2	0.974	> 10
KARPAS-620 (haematopoietic neoplasm, suspension)	0.825	0.0975	0.881	8.09	0.99	> 10
KCL-22 (chronic myeloid leukaemia, suspension)	0.918	> 0.2	0.944	> 10.2	0.991	> 10
KE-37 (lymphoblastic leukaemia, suspension)	0.504	0.0128	0.948	> 10.2	0.98	> 10
KELLY (neuroblastoma, adherent)	0.509	0.0132	0.989	> 10.2	0.983	> 10
KGN (ovary, adherent)	0.807	0.13	0.962	> 10.2	0.961	> 10
KINGS-1 (glioma, adherent)	0.777	0.114	0.98	> 10.2	0.972	> 10
KLE (endometrium, adherent)	0.906	> 0.2	0.976	> 10.2	0.976	> 10
KM12 (large intestine, adherent)	0.894	> 0.2	0.976	> 10.2	0.974	> 10
KM-H2 (Hodgkin lymphoma, suspension)	0.984	> 0.2	0.988	> 10.2	0.988	> 10
KMH-2 (thyroid, adherent)	0.778	0.0723	0.978	> 10.2	0.99	> 10
KMOE-2 (acute myeloid leukaemia, suspension)	0.945	> 0.2	0.984	> 10.2	0.978	> 10
KMRC-1 (kidney, adherent)	0.721	0.0551	0.977	> 10.2	0.977	> 10
KMRC-20 (kidney, adherent)	0.749	0.066	0.989	> 10.2	0.958	> 10
KMS-11 (myeloma, suspension)	0.738	0.0528	0.98	> 10.2	0.98	> 10

Cell Line	AUC [1]	IC50 [1] [µM]	AUC [2]	IC50 [2] [µM]	AUC [3]	IC50 [3] [µM]
KNS-42 (glioma, adherent)	0.782	0.101	0.984	> 10.2	0.975	> 10
KNS-81-FD (glioma, adherent)	0.701	0.057	0.981	> 10.2	0.976	> 10
KOPN-8 (B-cell leukaemia, suspension)	0.473	0.0107	0.942	> 10.2	0.989	> 10
KP-2 (pancreas, adherent)	0.858	0.186	0.986	> 10.2	0.959	> 10
KP-3 (pancreas, adherent)	0.935	> 0.2	0.972	> 10.2	0.984	> 10
KP-N-YN (neuroblastoma, adherent)	0.971	> 0.2	0.987	> 10.2	0.952	> 10
KS-1 (glioma, adherent)	0.644	0.0346	0.92	> 10.2	0.974	> 10
KU812 (chronic myeloid leukaemia, suspension)	0.818	0.1	0.988	> 10.2	0.982	> 10
KU-19-19 (bladder, adherent)	0.816	0.111	0.987	> 10.2	0.984	> 10
KURAMOCHI (ovary, adherent)	0.765	0.0846	0.984	> 10.2	0.983	> 10
KY821 (leukaemia, suspension)	0.979	> 0.2	0.991	> 10.2	0.933	> 10
KYAE-1 (oesophagus, suspension)	0.699	0.0483	0.908	> 10.2	0.959	> 10
KYM-1 (rhabdomyosarcoma, adherent)	0.637	0.0281	0.991	> 10.2	0.991	> 10
KYSE-50 (oesophagus, adherent)	0.986	> 0.2	0.985	> 10.2	0.986	> 10
KYSE-140 (oesophagus, adherent)	0.72	0.0576	0.98	> 10.2	0.984	> 10
KYSE-150 (oesophagus, adherent)	0.968	> 0.2	0.981	> 10.2	0.988	> 10
KYSE-220 (oesophagus, adherent)	0.973	> 0.2	0.977	> 10.2	0.98	> 10
KYSE-410 (oesophagus, adherent)	0.347	0.00457	0.982	> 10.2	0.983	> 10
KYSE-450 (oesophagus, adherent)	0.832	0.118	0.93	> 10.2	0.984	> 10
KYSE-520 (oesophagus, adherent)	0.741	0.0794	0.982	> 10.2	0.966	> 10
L-363 (myeloma, suspension)	0.159	0.00138	0.969	> 10.2	0.977	> 10
L-428 (Hodgkin lymphoma, suspension)	0.791	0.0779	0.993	> 10.2	0.991	> 10
L-540 (Hodgkin lymphoma, suspension)	0.55	0.0169	0.972	> 10.2	0.99	> 10
L-1236 (Hodgkin lymphoma, suspension)	0.797	0.0777	0.992	> 10.2	0.989	> 10

From the supplement of paper PMC4967469
